# Publication PMC12820563
# Some of the results follow. The list includes weakly bound sequences.
# Molecular target: T1, MBP-FoxP3dN (UniProt Q99JB6)
# T1 sequence: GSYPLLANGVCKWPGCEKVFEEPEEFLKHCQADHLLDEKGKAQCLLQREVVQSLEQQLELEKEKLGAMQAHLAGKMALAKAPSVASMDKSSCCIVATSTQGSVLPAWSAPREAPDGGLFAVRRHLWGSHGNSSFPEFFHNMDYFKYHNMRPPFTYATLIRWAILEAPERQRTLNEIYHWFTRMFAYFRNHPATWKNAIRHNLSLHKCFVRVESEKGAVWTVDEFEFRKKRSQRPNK
# Assay: PD-seq (MBP pull-down with sequencing)
# Settings: 20 mM Tris-HCl pH 7.5, 100 mM NaCl, 1.5 mM MgCl2, 0.4 uM protein, 0.1 uM dsDNA library, 30 min, room temperature, amylose pull-down; high values mean tight binding; double strand, one strand shown
row,Sequence,binding signal (RPM ratio (pull-down/input))
1,GATGATTGTTCTCCCAGCTGATGAATTACCAAATTCGAGTAAACAAATTTTCCTAATCTTTCTGTTCAAGCGCCATCTAC,0.307
2,GATGATTGTTCTCCCAGCTGATGAATTGTAGTTATCGAGTAAACAAATTTTCCTAATCTTTCTGTTCAAGCGCCATCTAC,1.79
3,GATGATTGTTCTCCCAGCTGATGAATTAGTGCATTCGAGTAAACAAATTTTCCTAATCTTTCTGTTCAAGCGCCATCTAC,7.28
4,GATGATTGTTCTCCCAGCTGATGAATTCCCGTCATCGAGTAAACAAATTTTCCTAATCTTTCTGTTCAAGCGCCATCTAC,0.423
5,GATGATTGTTCTCCCAGCTGATGAATTAATTGCATCGAGTAAACAAATTTTCCTAATCTTTCTGTTCAAGCGCCATCTAC,1.93
6,GATGATTGTTCTCCCAGCTGATGAATTTTAACAATCGAGTAAACAAATTTTCCTAATCTTTCTGTTCAAGCGCCATCTAC,0.448
7,GATGATTGTTCTCCCAGCTGATGAATTAGAATAATCGAGTAAACAAATTTTCCTAATCTTTCTGTTCAAGCGCCATCTAC,0.283
8,GATGATTGTTCTCCCAGCTGATGAATTATTGGACTCGAGTAAACAAATTTTCCTAATCTTTCTGTTCAAGCGCCATCTAC,0.336
9,GATGATTGTTCTCCCAGCTGATGAATTCGAGAACTCGAGTAAACAAATTTTCCTAATCTTTCTGTTCAAGCGCCATCTAC,0.201
10,GATGATTGTTCTCCCAGCTGATGAATTCCACCCTTCGAGTAAACAAATTTTCCTAATCTTTCTGTTCAAGCGCCATCTAC,0.301
11,GATGATTGTTCTCCCAGCTGATGAATTACCATGGTCGAGTAAACAAATTTTCCTAATCTTTCTGTTCAAGCGCCATCTAC,0.29
12,GATGATTGTTCTCCCAGCTGATGAATTACCTTAGTCGAGTAAACAAATTTTCCTAATCTTTCTGTTCAAGCGCCATCTAC,0.241
13,GATGATTGTTCTCCCAGCTGATGAATTACAGCGTTCGAGTAAACAAATTTTCCTAATCTTTCTGTTCAAGCGCCATCTAC,1.22
14,GATGATTGTTCTCCCAGCTGATGAATTGCCGCATTCGAGTAAACAAATTTTCCTAATCTTTCTGTTCAAGCGCCATCTAC,7.28
15,GATGATTGTTCTCCCAGCTGATGAATTAAGCCTATCGAGTAAACAAATTTTCCTAATCTTTCTGTTCAAGCGCCATCTAC,1.76
16,GATGATTGTTCTCCCAGCTGATGAATTATTGCCGTCGAGTAAACAAATTTTCCTAATCTTTCTGTTCAAGCGCCATCTAC,1.03
17,GATGATTGTTCTCCCAGCTGATGAATTTCTCGATTCGAGTAAACAAATTTTCCTAATCTTTCTGTTCAAGCGCCATCTAC,0.237
18,GATGATTGTTCTCCCAGCTGATGAATTCGGCGATTCGAGTAAACAAATTTTCCTAATCTTTCTGTTCAAGCGCCATCTAC,1.04
19,GATGATTGTTCTCCCAGCTGATGAATTGGATCCTTCGAGTAAACAAATTTTCCTAATCTTTCTGTTCAAGCGCCATCTAC,0.253
20,GATGATTGTTCTCCCAGCTGATGAATTGAGAGGCTCGAGTAAACAAATTTTCCTAATCTTTCTGTTCAAGCGCCATCTAC,0.392

row,Sequence,binding signal (RPM ratio (pull-down/input))
1,GATGATTGTTCTCCCAGCTGATGAATTATCCGAGTCGAGTAAACAAATTTTCCTAATCTTTCTGTTCAAGCGCCATCTAC,0.234
2,GATGATTGTTCTCCCAGCTGATGAATTCCCTTTCTCGAGTAAACAAATTTTCCTAATCTTTCTGTTCAAGCGCCATCTAC,0.295
3,GATGATTGTTCTCCCAGCTGATGAATTTGGGGTTTCGAGTAAACAAATTTTCCTAATCTTTCTGTTCAAGCGCCATCTAC,0.898
4,GATGATTGTTCTCCCAGCTGATGAATTTGCGCGTTCGAGTAAACAAATTTTCCTAATCTTTCTGTTCAAGCGCCATCTAC,2.13
5,GATGATTGTTCTCCCAGCTGATGAATTATTTGCTTCGAGTAAACAAATTTTCCTAATCTTTCTGTTCAAGCGCCATCTAC,2.24
6,GATGATTGTTCTCCCAGCTGATGAATTATCGTGGTCGAGTAAACAAATTTTCCTAATCTTTCTGTTCAAGCGCCATCTAC,0.336
7,GATGATTGTTCTCCCAGCTGATGAATTATCGCGATCGAGTAAACAAATTTTCCTAATCTTTCTGTTCAAGCGCCATCTAC,0.519
8,GATGATTGTTCTCCCAGCTGATGAATTGAAAAGGTCGAGTAAACAAATTTTCCTAATCTTTCTGTTCAAGCGCCATCTAC,0.133
9,GATGATTGTTCTCCCAGCTGATGAATTCGCCTCGTCGAGTAAACAAATTTTCCTAATCTTTCTGTTCAAGCGCCATCTAC,1.01
10,GATGATTGTTCTCCCAGCTGATGAATTGAGCCCGTCGAGTAAACAAATTTTCCTAATCTTTCTGTTCAAGCGCCATCTAC,1.06
11,GATGATTGTTCTCCCAGCTGATGAATTTTACGGATCGAGTAAACAAATTTTCCTAATCTTTCTGTTCAAGCGCCATCTAC,0.184
12,GATGATTGTTCTCCCAGCTGATGAATTGTACCTATCGAGTAAACAAATTTTCCTAATCTTTCTGTTCAAGCGCCATCTAC,0.561
13,GATGATTGTTCTCCCAGCTGATGAATTTAGTCGTTCGAGTAAACAAATTTTCCTAATCTTTCTGTTCAAGCGCCATCTAC,0.962
14,GATGATTGTTCTCCCAGCTGATGAATTTTGGAATTCGAGTAAACAAATTTTCCTAATCTTTCTGTTCAAGCGCCATCTAC,0.747
15,GATGATTGTTCTCCCAGCTGATGAATTCCATCTGTCGAGTAAACAAATTTTCCTAATCTTTCTGTTCAAGCGCCATCTAC,0.414
16,GATGATTGTTCTCCCAGCTGATGAATTACTTTTGTCGAGTAAACAAATTTTCCTAATCTTTCTGTTCAAGCGCCATCTAC,0.703
17,GATGATTGTTCTCCCAGCTGATGAATTGTTCCCTTCGAGTAAACAAATTTTCCTAATCTTTCTGTTCAAGCGCCATCTAC,0.416
18,GATGATTGTTCTCCCAGCTGATGAATTGCACCACTCGAGTAAACAAATTTTCCTAATCTTTCTGTTCAAGCGCCATCTAC,1.03
19,GATGATTGTTCTCCCAGCTGATGAATTGGTGGGATCGAGTAAACAAATTTTCCTAATCTTTCTGTTCAAGCGCCATCTAC,0.401
20,GATGATTGTTCTCCCAGCTGATGAATTCGATACGTCGAGTAAACAAATTTTCCTAATCTTTCTGTTCAAGCGCCATCTAC,0.656
